Test results published in ChEMBL document CHEMBL4888484, “Replenishing the malaria drug discovery pipeline: Screening and hit evaluation of the MMV Hit Generation Library 1 (HGL1) against asexual blood stage Plasmodium falciparum ,using a nano luciferase reporter read-out” (2022).
The campaign covered roughly 150,000 compounds. About 540 (0.36%) showed an effect of 50% or more. The list shows a part of the results.

test system: Plasmodium falciparum; assay: Primary screen in NF54 nanoGlo assay, in single point, at 2uM, 72h; a lower Z score goes with more inhibition; format: functional, Erythrocyte; details: timepoint 72 hour

SMILES	% Inhibition [%]	Z score
O=C(O)[C@@H](c1ccc(N2CCCCC2)nc1)N1CCC(N2CCCC2)CC1	13	-1.88
CCCn1nc(C)c2[nH]c(-c3cnn(C(C)C)c3)nc21	-12	1.37
CC(C)n1ccc(CNC(=O)C(=O)Nc2cccc(C#N)c2)n1	3	-0.38
CN1N=C(C(=O)NCCc2ccc3c(c2)OCO3)CCC1=O	-7	1.42
COC[C@](C)(CC(=O)OC)NCCOc1cccc(C#N)c1	-11	1.49
COCCn1cncc1CNc1ncnc2onc(C)c12	0	-0.03
CO[C@@]12CC[C@H](O)C[C@@H]1N(C(=O)c1cccc(-n3cnnc3)n1)CC2	7	-1.35
O=C1N[C@H]2CCC[C@@H]1CN(C(=O)c1cc(Cl)ccc1F)C2	-5	0.9
COc1cc(C(=O)NCCc2ccccc2)cc(OC)c1OCc1ccccc1	-3	0.5
COc1ccc(CC[C@H](C)NC(=O)NCCCN2CCCC2=O)cc1	32	-1.05
COc1ccc(NC(=O)CN2C(=O)CC3(CCCC3)NC2=O)cc1	-9	1.16
COCCN(CC(C)C)C(=O)Nc1ccn(CCc2ccncc2)n1	-3	0.43
COCCNS(=O)(=O)C1CON(C)C1c1cccc(OCc2ccccc2)c1 (stereo unspecified)	7	-0.91
CN(C)C1=NC2(CCN(C/C=C/c3ccccc3)CC2)C(=O)N1	0	0.05
Cc1ccc(Oc2ncccc2CNC(=O)Cc2c[nH]c(=O)[nH]c2=O)cn1	-2	0.46
CN(C[C@H]1CCCOC1)c1ccc(C#N)cc1	-1	0.12
Cc1cc(S(=O)(=O)N2CC[C@H](c3nnc[nH]3)C2)ccc1F	-13	1.73
O=S1(=O)CCc2nnc(C3CCCC3)n2CC1	3	-0.62
Cc1ccc(-n2nc(C)c3c2NC(=O)C[C@@H]3c2ccc3c(c2)OCO3)cc1	-11	1.15
CCC1(CC)C(NC(=O)c2cccc(C#N)c2Br)CC1OC (stereo unspecified)	-7	0.89
CS(=O)(=O)c1cccc(Br)c1NCCCOC1CCCCC1	-3	0.35
CC1(C)C(=O)NCCN1C(=O)c1nccc2ccccc12	-14	1.42

SMILES	% Inhibition [%]	Z score
O=C(c1nc2ccccn2c1-c1ccc(F)cc1)N1CCCCC1	-8	1.25
COCc1cccc(C(=O)Nc2nc(C3CC3)no2)c1	-3	0.63
CNC(=O)[C@@H](C)CN(C)Cc1cc(Br)cc2c1OCC2	-2	0.2
O=C(NCCc1ccccc1F)c1ccc2ccccc2n1	1	-0.11
O=S(=O)(Nc1ccc(-n2cccn2)cc1C(F)(F)F)c1ccc2c(c1)OCCO2	-2	0.34
C[C@H]1CCCCN1C(=O)Cn1cccc1-c1nc(-c2cccc(Cl)c2)no1	10	-1.35
O=C(N[C@H]1CO[C@@H](CN2CCC(F)(F)C2)[C@@H]1O)C1CCOCC1	-2	0.33
CCN(c1ccncc1)S(=O)(=O)c1cnnn1C	-15	2.01
CCc1nsc(NCCN2CCN(C(=O)C3CCCC3)CC2)n1	8	-0.68
Cc1ccc(S(=O)(=O)c2nc(Nc3ccccc3C(N)=O)sc2Cl)cc1	-1	0.11
Cc1ccc(S(=O)(=O)N2CCOCCN(S(=O)(=O)c3ccc(C)cc3)CCN(S(=O)(=O)c3ccc(C)cc3)CC2)cc1	4	-0.64
OCCNc1nc2ccc(Br)cc2c(-c2ccccc2)c1-c1cc(-c2ccccc2)c2cc(Br)ccc2n1	-12	2.02
COc1ccc(C2=Nn3c(C)nnc3-c3ccccc3C2)cc1	-15	1.94
CCc1ncncc1C(=O)NCC(CC)(CC)CO	32	-3.61
CC(C)(C(=O)N1CCC(c2ncc(Cl)cn2)CC1)n1cc(N)cn1	-6	1.01
CN(CC(N)=O)Cc1nc(CCc2ccccc2)no1	-21	4.03
Cn1c(Cc2n[n+]3c(-c4ccccc4)cc(-c4ccccc4)nc3n2C)n[n+]2c(-c3ccccc3)cc(-c3ccccc3)nc12	95	-10.43
CC1CN(C2CC2)CC1NC(=O)N1Cc2ccc(Br)cc2C1 (stereo unspecified)	-8	1.43
Cc1nc(-c2ccc(NC(=O)C(C)C)cc2)co1	-10	1.47
C=CCN=C(NCc1nnc2n1CCC2)N[C@@H](C)c1ccccc1	-8	0.87
Cn1cc(Nc2cccc(NS(=O)(=O)c3cccc(F)c3F)c2)cn1	-9	1.52
